{
  "source": "the supplement of paper PMC11417369",
  "note": "± gives the standard deviation of the averaged measurements. This is one part of the list.",
  "data": [
    {"tested_on": "PfAP2-LT AP2 domain (GST-tagged)", "assay": "gcPBM binding intensity (ln(normalized median fluorescence intensity)); higher = stronger DNA binding", "method_in_brief": "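In this array assay, P. falciparum DNA-binding domains with a GST tag, expressed in E. coli, were applied for 1 h to primer-extended double-stranded 36-bp intergenic genomic probes and negative controls on an Agilent 4 × 180k array. Bound protein was visualised with Alexa488 anti-GST antibody at 488 nm. Binding intensity is the highest Masliner-normalised natural-log median intensity across replicate spots of either probe orientation.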", "values": [
      {"sequence": "GTAGAAAGAAAAATTAGTACTTAAATATTATAAAAA [XGTACX_site8458]", "gcPBM binding intensity (ln)": "8.4 ± 0.47"},
      {"sequence": "AATTATATTTAGTATATGCACACTTTATGTTTGTTA [CACACA_site2025]", "gcPBM binding intensity (ln)": "9.08 ± 0.47"},
      {"sequence": "TTTTAAAAAATATAATAATATAAATATTTTATACGT [TGCATGCA_negctrl_site252]", "gcPBM binding intensity (ln)": "8.28 ± 0.48"},
      {"sequence": "GACTTTTTCATTTTTAGTACACATATATATTTCCCT [XGTACX_site3511]", "gcPBM binding intensity (ln)": "9.15 ± 0.57"},
      {"sequence": "AAAAAAAAAAAACATACACACACACTAATATTTATA [CACACA_site8038]", "gcPBM binding intensity (ln)": "9.6 ± 0.23"},
      {"sequence": "ATATATTTTTAATATGCACACAAGAATACATTCACA [CACACA_site914]", "gcPBM binding intensity (ln)": "8.99 ± 0.34"},
      {"sequence": "TTAAAAAATCACAACACACACACACCCAAAAAAAAA [CACACA_site1445]", "gcPBM binding intensity (ln)": "9.77 ± 0.26"},
      {"sequence": "TTTATACTTTCAAAATGTACATATATATATATATAT [XGTACX_site6241]", "gcPBM binding intensity (ln)": "9.36 ± 0.042"},
      {"sequence": "CTAATCATAAAATATACACACACGGATACATTAAAT [CACACA_site2685]", "gcPBM binding intensity (ln)": "9.47 ± 0.28"},
      {"sequence": "ATTGAAGGGAAATATATAATCATATTCAAAATAAAA [CACACA_negctrl_site728]", "gcPBM binding intensity (ln)": "8.57 ± 0.45"},
      {"sequence": "ATTTCTCTATCGTAATGTACAAAAAAAAGGGAAAAG [XGTACX_site1335]", "gcPBM binding intensity (ln)": "8.66 ± 0.47"},
      {"sequence": "TAATATATAATTTTATGTACATAATTATAAACCCAT [XGTACX_site919]", "gcPBM binding intensity (ln)": "8.64 ± 0.4"},
      {"sequence": "CATCAAAATGAAGCATGTACATAATATAAATAAATA [XGTACX_site4647]", "gcPBM binding intensity (ln)": "8.88 ± 0.53"},
      {"sequence": "CTTTTTACTTAATACACACACACACCCAAAAAAAAA [CACACA_site948]", "gcPBM binding intensity (ln)": "9.61 ± 0.2"},
      {"sequence": "AAAAAATACCAAAGGGGTACTTACACATAATACTTA [XGTACX_site2111]", "gcPBM binding intensity (ln)": "8.77 ± 0.48"},
      {"sequence": "TATGTATATTGAGATTGTACTTGTAATATTAAACAT [XGTACX_site3878]", "gcPBM binding intensity (ln)": "8.55 ± 0.4"},
      {"sequence": "TTGTATAAAATATGTAGTACAATAATATAACATTTT [XGTACX_site8607]", "gcPBM binding intensity (ln)": "8.66 ± 0.35"},
      {"sequence": "AATAATAAAAATATTGTGCACTTGTATATTTATTAT [GTGCAC_site9963]", "gcPBM binding intensity (ln)": "8.85 ± 0.4"},
      {"sequence": "GGTATTTTCACATATAGTACACAAAAATAAAATAAA [XGTACX_site2139]", "gcPBM binding intensity (ln)": "8.71 ± 0.44"},
      {"sequence": "ATATCAAATAATTTAGTGCACTTTTTTTTTTCTTTT [GTGCAC_site9629]", "gcPBM binding intensity (ln)": "8.79 ± 0.54"},
      {"sequence": "AAGGAATAAAATTTAGAAGACAATTTTATTTCAGTA [XGTACX_negctrl_site331]", "gcPBM binding intensity (ln)": "8.41 ± 0.52"},
      {"sequence": "ATATTAACTTTTATTACACACTCTCAACTTTTATTT [CACACA_site6176]", "gcPBM binding intensity (ln)": "9.01 ± 0.57"},
      {"sequence": "TCACAAATGTATTATACACACAAGTTTTCTTTAATA [CACACA_site4107]", "gcPBM binding intensity (ln)": "8.71 ± 0.45"},
      {"sequence": "TATATAATATAATGTAGTACATGTTTTATTTTTTAC [XGTACX_site7735]", "gcPBM binding intensity (ln)": "8.71 ± 0.46"},
      {"sequence": "ATTTATTTATTTTCATGTACATATGTAAATCAATAA [XGTACX_site3886]", "gcPBM binding intensity (ln)": "8.62 ± 0.32"},
      {"sequence": "ATAAAATACAAAGGGACACACATATGAGTCTACAAA [CACACA_site3092]", "gcPBM binding intensity (ln)": "9.16 ± 0.52"},
      {"sequence": "TAAACACATTATATATGTACATAATAAAAAAAAAAA [XGTACX_site7907]", "gcPBM binding intensity (ln)": "8.84 ± 0.52"},
      {"sequence": "AAGTTATACACATCAACACACACATACAACGTGGTG [CACACA_site8312]", "gcPBM binding intensity (ln)": "9.45 ± 0.4"},
      {"sequence": "CAAAATGATATGACAACACACAACCTATAGTAAGAC [CACACA_site1287]", "gcPBM binding intensity (ln)": "9.38 ± 0.49"},
      {"sequence": "TAATATATAATAAAGTGTACATATGCTTTATTATTA [XGTACX_site1920]", "gcPBM binding intensity (ln)": "8.62 ± 0.38"},
      {"sequence": "TGACGACATTTCTTATGTACTAATTTTTCTTCCTTT [XGTACX_site4391]", "gcPBM binding intensity (ln)": "8.78 ± 0.45"},
      {"sequence": "TAAAAAAAGAAAAAAAGTACATGCTACTTTTATGAT [XGTACX_site7818]", "gcPBM binding intensity (ln)": "8.5 ± 0.42"},
      {"sequence": "GGAATATAAATACATACACACATATATATATATATA [CACACA_site4998]", "gcPBM binding intensity (ln)": "10 ± 0.33"},
      {"sequence": "TATAATAAATCAAATGCACACACACTAATAAAAAAA [CACACA_site7937]", "gcPBM binding intensity (ln)": "9.63 ± 0.35"},
      {"sequence": "TGTTGTTATAAAAAAAAAAAAAAAAAAAAAAAAAAA [GTGCAC_negctrl_site230]", "gcPBM binding intensity (ln)": "7.89 ± 0.39"},
      {"sequence": "TGTGGTTTTTATAATTGTACATATATATAAATCTAT [XGTACX_site4766]", "gcPBM binding intensity (ln)": "8.78 ± 0.33"},
      {"sequence": "ATATAAAATAAATAAGTGCAGATAAATTTATGTGAC [GTGCAC_site9504]", "gcPBM binding intensity (ln)": "9.11 ± 0.54"},
      {"sequence": "TATATATTATATATATGTACTTATTTATTAATTTAT [XGTACX_site5253]", "gcPBM binding intensity (ln)": "8.61 ± 0.47"},
      {"sequence": "TACATGCTTATTTTAACACACAAATGGTAGTAATAA [CACACA_site766]", "gcPBM binding intensity (ln)": "8.84 ± 0.46"},
      {"sequence": "ATGAATATTTACAATCTTATTATGTTCAAAATTAAT [CACACA_negctrl_site592]", "gcPBM binding intensity (ln)": "8.38 ± 0.46"},
      {"sequence": "TGAATGCTTTTATGCACACGTACAAAAATATTATAT [CACACA_site2668]", "gcPBM binding intensity (ln)": "8.82 ± 0.33"},
      {"sequence": "AATAAAAATAACCTAACATGCAAAAAAAAAAAAAAA [TGCATGCA_site718]", "gcPBM binding intensity (ln)": "8.72 ± 0.61"},
      {"sequence": "GTCATTAAAAAAATATGTACTTAAATGTATGCATAT [XGTACX_site5951]", "gcPBM binding intensity (ln)": "8.7 ± 0.42"},
      {"sequence": "ATGAATGTCCCAAGATGTACAATTATATATAACACA [XGTACX_site4702]", "gcPBM binding intensity (ln)": "8.69 ± 0.42"},
      {"sequence": "AAATCCTTATTTTTTTGTACGTAATATTTTATATGG [XGTACX_site1530]", "gcPBM binding intensity (ln)": "8.71 ± 0.44"},
      {"sequence": "TAATAAATAAGACACACACACATATATATATATTAT [CACACA_site1389]", "gcPBM binding intensity (ln)": "9.8 ± 0.2"},
      {"sequence": "GAGTAAAAATTAAAATGTACATATTATATATATTTA [XGTACX_site1319]", "gcPBM binding intensity (ln)": "8.58 ± 0.45"},
      {"sequence": "AGTAAATAACACAAATATGAATGAAAAAAAAAATAT [GTGCAC_negctrl_site235]", "gcPBM binding intensity (ln)": "9.01 ± 0.49"},
      {"sequence": "TGTGCGGAAATAAGTGCACACATAGATATCTGTATT [CACACA_site5935]", "gcPBM binding intensity (ln)": "9.25 ± 0.31"},
      {"sequence": "CAACTTATTAAAAGTCGTACAAATGGGAAGAAGGAA [XGTACX_site6325]", "gcPBM binding intensity (ln)": "8.8 ± 0.36"},
      {"sequence": "CGTATGAGTAAATACACACCCACGTATATATATAAA [CACACA_site5728]", "gcPBM binding intensity (ln)": "8.94 ± 0.4"},
      {"sequence": "ATATATATATAGTACGCACACATAGTTGTACATTAA [CACACA_site2787]", "gcPBM binding intensity (ln)": "9.29 ± 0.22"},
      {"sequence": "TTATACAACAAGAAAATTATAAAATGTAACATATAT [GTGCAC_negctrl_site406]", "gcPBM binding intensity (ln)": "8.68 ± 0.44"},
      {"sequence": "ATATTAATATAATGTGCATGTTCAATGATCTTTTTA [TGCATGCA_site22]", "gcPBM binding intensity (ln)": "8.69 ± 0.42"},
      {"sequence": "ATAATTATTAATATAGTGCATTGGCATAATAATATA [GTGCAC_site9810]", "gcPBM binding intensity (ln)": "8.69 ± 0.39"},
      {"sequence": "TACAAATATATATGCACACACATATATGTATATGTG [CACACA_site3075]", "gcPBM binding intensity (ln)": "9.62 ± 0.28"}
    ]}
  ]
}
